Data as given in ChEMBL document CHEMBL1961873, “Compounds: GSK PKIS; Assays: Nanosyn kinase panel” (2012).
This list holds what a sample rich in strong results left over.

Target: Protein kinase C beta type (Homo sapiens) (UniProt P05771);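 also: mean inhibition value, enzyme form tested was the PKC-beta1 splice variant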
Conditions: at 1 µM

Sequence of UniProt P05771 (P05771 whole entry, looked up, canonical isoform): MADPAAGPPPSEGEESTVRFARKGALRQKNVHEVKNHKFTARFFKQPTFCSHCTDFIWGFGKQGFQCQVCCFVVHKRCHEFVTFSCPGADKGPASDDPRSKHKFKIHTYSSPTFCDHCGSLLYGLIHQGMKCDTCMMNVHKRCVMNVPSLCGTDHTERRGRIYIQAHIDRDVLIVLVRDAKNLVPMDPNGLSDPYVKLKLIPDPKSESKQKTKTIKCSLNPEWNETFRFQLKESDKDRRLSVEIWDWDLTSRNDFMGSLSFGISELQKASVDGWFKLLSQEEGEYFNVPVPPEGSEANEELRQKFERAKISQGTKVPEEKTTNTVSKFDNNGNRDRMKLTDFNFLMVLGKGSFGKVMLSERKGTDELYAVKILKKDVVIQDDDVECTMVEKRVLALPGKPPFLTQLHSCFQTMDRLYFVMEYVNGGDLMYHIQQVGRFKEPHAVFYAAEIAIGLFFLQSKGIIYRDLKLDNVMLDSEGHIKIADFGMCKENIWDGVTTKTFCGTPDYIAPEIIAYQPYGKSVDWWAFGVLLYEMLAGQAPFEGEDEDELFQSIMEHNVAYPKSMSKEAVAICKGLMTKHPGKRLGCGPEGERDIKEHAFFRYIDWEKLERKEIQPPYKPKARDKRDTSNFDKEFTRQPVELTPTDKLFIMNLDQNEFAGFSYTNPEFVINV

SMILES	inhibition [%]
O=C1NC(=O)C(c2ccccc2)=C1Nc1ccccc1	6.45
CC(C)(C)c1ccc(Oc2nccc(-c3c(-c4ccc(F)cc4)ncn3C3CCNCC3)n2)cc1	3.55
Cc1cccc(Oc2nccc(-c3c(-c4ccc(F)cc4)ncn3C3CCNCC3)n2)c1C	6.3
Fc1ccc(-c2ncn(C3CCNCC3)c2-c2ccnc(Oc3cccc(C(F)(F)F)c3)n2)cc1	3.8
Fc1ccc(-c2ncn(C3CCNCC3)c2-c2ccnc(Oc3cccc(F)c3)n2)cc1	8.71
O=C1NC(=O)C(c2ccccc2Cl)=C1Nc1cc(Cl)c(O)c(Cl)c1	2.96
CS(=O)(=O)c1ccc(Oc2nccc(-c3c(-c4ccc(F)cc4)ncn3C3CCNCC3)n2)cc1	2.31
COc1ccccc1C1=C(Nc2ccccc2)C(=O)NC1=O	16.9
COc1ccccc1Oc1nccc(-c2c(-c3ccc(F)cc3)ncn2C2CCNCC2)n1	3.03
NC(=O)CCc1ccccc1Oc1nccc(-c2c(-c3ccc(F)cc3)ncn2C2CCNCC2)n1	1.67
Fc1ccc(Oc2nccc(-c3c(-c4ccc(F)cc4)ncn3C3CCNCC3)n2)cc1	4.96
O=C1NC(=O)C(c2cccc([N+](=O)[O-])c2)=C1Nc1cc(Cl)c(O)c(Cl)c1	1.87
Fc1ccc(-c2ncn(C3CCNCC3)c2-c2ccnc(Oc3ccc(Cl)cc3)n2)cc1	8.1
O=C(O)c1ccc(Oc2nccc(-c3c(-c4ccc(F)cc4)ncn3C3CCNCC3)n2)cc1	2.29

Target: Protein kinase C eta type (Homo sapiens) (UniProt P24723);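 also: values are the mean percent inhibition of PKC-eta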
Sequence of UniProt P24723 (P24723 whole entry): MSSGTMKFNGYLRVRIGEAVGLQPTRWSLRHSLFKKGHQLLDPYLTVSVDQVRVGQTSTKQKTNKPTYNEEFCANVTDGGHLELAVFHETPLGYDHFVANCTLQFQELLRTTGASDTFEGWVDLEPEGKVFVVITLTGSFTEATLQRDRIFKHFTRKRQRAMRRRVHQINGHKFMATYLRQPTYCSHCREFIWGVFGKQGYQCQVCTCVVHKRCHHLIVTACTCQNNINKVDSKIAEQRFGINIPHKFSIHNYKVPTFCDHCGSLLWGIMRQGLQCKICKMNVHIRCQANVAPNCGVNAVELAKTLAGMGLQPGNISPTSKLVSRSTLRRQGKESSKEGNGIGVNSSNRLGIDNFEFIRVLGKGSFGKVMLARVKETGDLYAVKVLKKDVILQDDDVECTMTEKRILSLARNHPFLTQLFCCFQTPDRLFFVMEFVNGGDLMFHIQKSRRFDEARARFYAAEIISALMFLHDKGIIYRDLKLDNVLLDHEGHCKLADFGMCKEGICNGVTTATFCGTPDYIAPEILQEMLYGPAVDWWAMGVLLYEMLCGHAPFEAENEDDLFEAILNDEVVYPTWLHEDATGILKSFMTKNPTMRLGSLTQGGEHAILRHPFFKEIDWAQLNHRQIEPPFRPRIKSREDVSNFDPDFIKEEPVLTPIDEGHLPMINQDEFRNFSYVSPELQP
Conditions: at 0.1 µM

SMILES	inhibition [%]
O=C1NC(=O)C(c2ccccc2)=C1Nc1ccccc1	4.22
CC(C)(C)c1ccc(Oc2nccc(-c3c(-c4ccc(F)cc4)ncn3C3CCNCC3)n2)cc1	5.31
Cc1cccc(Oc2nccc(-c3c(-c4ccc(F)cc4)ncn3C3CCNCC3)n2)c1C	2.76
Fc1ccc(-c2ncn(C3CCNCC3)c2-c2ccnc(Oc3cccc(C(F)(F)F)c3)n2)cc1	6.23
Fc1ccc(-c2ncn(C3CCNCC3)c2-c2ccnc(Oc3cccc(F)c3)n2)cc1	3.44
O=C1NC(=O)C(c2ccccc2Cl)=C1Nc1cc(Cl)c(O)c(Cl)c1	2.28
CS(=O)(=O)c1ccc(Oc2nccc(-c3c(-c4ccc(F)cc4)ncn3C3CCNCC3)n2)cc1	5.38
COc1ccccc1C1=C(Nc2ccccc2)C(=O)NC1=O	2.58
COc1ccccc1Oc1nccc(-c2c(-c3ccc(F)cc3)ncn2C2CCNCC2)n1	2.13
NC(=O)CCc1ccccc1Oc1nccc(-c2c(-c3ccc(F)cc3)ncn2C2CCNCC2)n1	-0.99
Fc1ccc(Oc2nccc(-c3c(-c4ccc(F)cc4)ncn3C3CCNCC3)n2)cc1	3.18
O=C1NC(=O)C(c2cccc([N+](=O)[O-])c2)=C1Nc1cc(Cl)c(O)c(Cl)c1	1.43
Fc1ccc(-c2ncn(C3CCNCC3)c2-c2ccnc(Oc3ccc(Cl)cc3)n2)cc1	3.99
O=C(O)c1ccc(Oc2nccc(-c3c(-c4ccc(F)cc4)ncn3C3CCNCC3)n2)cc1	4.1
